Measurements published in the supplement of paper PMC4604168 (melanoma cell lines).
Some of the results follow. Single values are uncertain, as repeats are few or missing.

Test system: A101D
Assay: cell count relative to DMSO control; melanoma cells; higher = more viable cells
Settings: library dose: standard library concentration; 72 h
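Note: cells treated in 1,536-well plates, then fixed and DAPI-stained, with nuclei counted from automated high-throughput microscope images.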

SMILES	cell count [%]
CS(=O)(=O)CCNCc1ccc(-c2ccc3ncnc(Nc4ccc(OCc5cccc(F)c5)c(Cl)c4)c3c2)o1 [lapatinib] + Cn1c(Nc2ccc(C(F)(F)F)cc2)nc2cc(Oc3ccnc(-c4ncc(C(F)(F)F)[nH]4)c3)ccc21 [CHIR265] (first compound 4 µM, partner dose 0.4 µM)	51
C[C@@H](Oc1cc(-c2cnn(C3CCNCC3)c2)cnc1N)c1c(Cl)ccc(F)c1Cl [Crizotinib] + NC(=O)Nc1cc(-c2cccc(F)c2)sc1C(=O)N[C@H]1CCCNC1 [AZD7762] (first compound 1 µM, partner dose 0.1 µM)	65.5
CN1CCN(c2ccc3nc(-c4c(N)c5c(F)cccc5[nH]c4=O)[nH]c3c2)CC1 [Dovitinib] + OCc1c[nH]c2ccccc12 [Indole-3-carbinol] (first compound 0.5 µM, partner dose 4 µM)	68.2
CN1CCN(c2ccc3nc(-c4c(N)c5c(F)cccc5[nH]c4=O)[nH]c3c2)CC1 [Dovitinib] + NC(=O)Nc1cc(-c2cccc(F)c2)sc1C(=O)N[C@H]1CCCNC1 [AZD7762] (first compound 0.5 µM, partner dose 0.1 µM)	46.8
CN1CCN(c2ccc3nc(-c4c(N)c5c(F)cccc5[nH]c4=O)[nH]c3c2)CC1 [Dovitinib] + CNC(=O)c1cc(Oc2ccc(NC(=O)Nc3ccc(Cl)c(C(F)(F)F)c3)cc2)ccn1 [sorafenib] (first compound 0.5 µM, partner dose 2 µM)	72.9
CNC(=O)c1cc(Oc2ccc(NC(=O)Nc3ccc(Cl)c(C(F)(F)F)c3)cc2)ccn1 [sorafenib] + C=CCn1c(=O)c2cnc(Nc3ccc(N4CCN(C)CC4)cc3)nc2n1-c1cccc(C(C)(C)O)n1 [MK1775] (first compound 2 µM, partner dose 0.1 µM)	66.2
C[C@@H](Oc1cc(-c2cnn(C3CCNCC3)c2)cnc1N)c1c(Cl)ccc(F)c1Cl [Crizotinib] + Cn1nnc2c(C(N)=O)ncn2c1=O [temozolomide] (first compound 1 µM, partner dose 10 µM)	74
CS(=O)(=O)CCNCc1ccc(-c2ccc3ncnc(Nc4ccc(OCc5cccc(F)c5)c(Cl)c4)c3c2)o1 [lapatinib] + C#Cc1cccc(Nc2ncnc3cc(OCCOC)c(OCCOC)cc23)c1 [erlotinib] (first compound 4 µM, partner dose 4 µM)	73.8
C[C@@H](Oc1cc(-c2cnn(C3CCNCC3)c2)cnc1N)c1c(Cl)ccc(F)c1Cl [Crizotinib] + OCCn1cc(-c2cnc3nnn(Cc4ccc5ncccc5c4)c3n2)cn1 [PF04217903] (first compound 1 µM, partner dose 5 µM)	69.1
C=CCNC1=C2C[C@@H](C)C[C@H](OC)[C@H](O)[C@@H](C)/C=C(\C)[C@H](OC(N)=O)[C@@H](OC)/C=C\C=C(/C)C(=O)NC(=CC1=O)C2=O [Tanespimycin] + COCC[n+]1c2c(n(Cc3cnccn3)c1C)C(=O)c1ccccc1C2=O [YM155] (first compound 0.01 µM, partner dose 0.002 µM)	74
CN1CCN(c2ccc3nc(-c4c(N)c5c(F)cccc5[nH]c4=O)[nH]c3c2)CC1 [Dovitinib] + CC1(C)NC(=O)N(c2ccc([N+](=O)[O-])c(C(F)(F)F)c2)C1=O [nilutamide] (first compound 0.5 µM, partner dose 5 µM)	72
C[C@@H](Oc1cc(-c2cnn(C3CCNCC3)c2)cnc1N)c1c(Cl)ccc(F)c1Cl [Crizotinib] + O=c1cc(-c2cccc3c2Sc2ccccc2S3)oc(N2CCOCC2)c1 [KU55933] (first compound 1 µM, partner dose 5 µM)	81.9
CNC(=O)c1cc(Oc2ccc(NC(=O)Nc3ccc(Cl)c(C(F)(F)F)c3)cc2)ccn1 [sorafenib] + CS(=O)(=O)CCNCc1ccc(-c2ccc3ncnc(Nc4ccc(OCc5cccc(F)c5)c(Cl)c4)c3c2)o1 [lapatinib] (first compound 2 µM, partner dose 4 µM)	92.1
CN1CCN(c2ccc3nc(-c4c(N)c5c(F)cccc5[nH]c4=O)[nH]c3c2)CC1 [Dovitinib] + COc1ccc(Cl)c(Nc2nc3ccccc3nc2NS(=O)(=O)c2cccc(NC(=O)C(C)(C)N)c2)c1 [XL147] (first compound 0.5 µM, partner dose 4 µM)	72.7
